For 26 molecules, cytotoxicity call and growth inhibition call results are on record in the antibiotic and cytotoxicity screens of Wong et al. (2023).

The list shows a part of the results.

One experiment has as its system HSkMC. Briefly: cytotoxicity call (relative viability < 0.9). Conditions: 10 µM.
The subject of the next experiment is HepG2. Briefly: cytotoxicity call (relative viability < 0.9). Conditions: 10 µM.
For a further experiment, the system named is S. aureus RN4220. Briefly: growth inhibition call (relative growth <= 0.2). As to conditions: 50 µM.

As to `OCC1=C[C@@H](O)[C@@H]2C=CO[C@@H](O[C@@H]3O[C@H](CO)[C@@H](O)[C@H](O)[C@H]3O)[C@H]12`, the cytotoxicity call with HSkMC and in the experiment on HepG2 was “inactive” each time. Also, the growth inhibition call in the experiment with S. aureus RN4220 was “inactive”.
Turning to `C[C@@H]1CN([C@@H](C)CO)C(=O)CCCn2nncc2CO[C@@H]1CN(C)S(=O)(=O)c1cn(C)cn1`, the cytotoxicity call in the experiment with HSkMC and in the experiment with HepG2 was “inactive” throughout. In addition, the growth inhibition call in the experiment on S. aureus RN4220 was “inactive”.
As to `C[C@@H]1CCCCO[C@H](CN(C)S(=O)(=O)c2ccc(Cl)cc2)[C@@H](C)CN([C@@H](C)CO)C(=O)c2cc(NC(=O)CCC(F)(F)F)ccc2O1`, the cytotoxicity call in the experiment with HSkMC and in the experiment with HepG2 was “inactive” each time. Also, the growth inhibition call with S. aureus RN4220 is “inactive”.
On to `C[C@@H]1CCCCO[C@@H](CN(C)C(=O)Cc2ccccc2)[C@@H](C)CN([C@H](C)CO)C(=O)c2cc(NC(=O)NC3CCCCC3)ccc2O1`, for which the cytotoxicity call in the experiment on HSkMC and with HepG2 was “inactive” in each case. Further, the growth inhibition call in the experiment on S. aureus RN4220 was “inactive”.
With `C[C@@H]1CN([C@@H](C)CO)C(=O)c2cc(C3=CCCC3)cnc2O[C@@H]1CN(C)S(=O)(=O)c1cn(C)cn1`, the cytotoxicity call in the experiment on HSkMC and in the experiment on HepG2 was “inactive” throughout. In addition, the growth inhibition call in the experiment on S. aureus RN4220 was “inactive”.
Consider `C[C@H](CO)N1C[C@H](C)[C@H](CN(C)C(=O)Nc2cccc3ccccc23)Oc2c(NC(=O)Nc3ccc(C(F)(F)F)cc3)cccc2C1=O`, for which, in the experiment on HSkMC, the cytotoxicity call is “inactive”. Also, the cytotoxicity call in the experiment with HepG2 is “active”. Further, in the experiment on S. aureus RN4220, the growth inhibition call was “inactive”.
Consider `C[C@@H]1CN([C@H](C)CO)C(=O)CCCn2cc(nn2)CO[C@H]1CN(C)C(=O)Nc1cccc(C(F)(F)F)c1`, for which the cytotoxicity call with HSkMC and with HepG2 was “inactive” in each case. Also, the growth inhibition call in the experiment on S. aureus RN4220 is “inactive”.
Consider `O=C(C[C@@H]1C[C@@H]2c3cc(NS(=O)(=O)c4ccc(F)cc4)ccc3O[C@@H]2[C@H](CO)O1)NCCc1ccccc1`, for which the cytotoxicity call in the experiment on HSkMC and with HepG2 was “inactive” in each case. Moreover, the growth inhibition call in the experiment on S. aureus RN4220 is “inactive”.
For the molecule `COc1ccc(NC(=O)Nc2ccc3c(c2)CC(=O)N([C@H](C)CO)C[C@@H](C)[C@@H](CN(C)Cc2ccc(C(=O)Nc4ccccc4N)cc2)O3)cc1`, the cytotoxicity call in the experiment with HSkMC was “inactive”. Also, the cytotoxicity call with HepG2 is “active”. Moreover, the growth inhibition call with S. aureus RN4220 was “inactive”.
Turning to `C[C@@H]1CN([C@@H](C)CO)C(=O)c2cc(NS(=O)(=O)c3ccc(F)cc3)ccc2O[C@@H](C)CCCCO[C@H]1CN(C)C(=O)Nc1ccccc1`, the cytotoxicity call in the experiment on HSkMC and in the experiment with HepG2 was “inactive” throughout. Further, the growth inhibition call with S. aureus RN4220 was “inactive”.
With `COc1cccc(c1)CN1C[C@]2(CCN(CC2)S(=O)(=O)C)c2c(n(c3cc(ccc23)OC)C)[C@H]1CO`, the cytotoxicity call in the experiment with HSkMC and with HepG2 was “inactive” in each case. Moreover, the growth inhibition call in the experiment on S. aureus RN4220 is “inactive”.
Regarding `OC[C@H]1CC[C@@H]2O[C@H](CCc3ccc(C#Cc4ccccc4)cc3)[C@@H](n3cc(-c4ccccc4)nn3)C[C@@H]2O1`, in the experiment with HSkMC, the cytotoxicity call was “inactive”. In addition, in the experiment with HepG2, the cytotoxicity call is “active”. Besides, the growth inhibition call in the experiment on S. aureus RN4220 was “inactive”.
As to `C[C@H](CO)N1C[C@H](C)[C@H](CN(C)Cc2ccc(C(F)(F)F)cc2)Oc2ccc(NC(=O)Cn3cnnn3)cc2CC1=O`, the cytotoxicity call in the experiment with HSkMC and with HepG2 was “inactive” in each case. The growth inhibition call in the experiment on S. aureus RN4220 was “inactive”.
For the molecule `C[C@H](O)C#Cc1ccc2c(c1)O[C@@H](CN(C)C(=O)CN(C)C)[C@@H](C)CN([C@@H](C)CO)S2(=O)=O`, the cytotoxicity call in the experiment with HSkMC and with HepG2 was “inactive” each time. For the same molecule, the growth inhibition call with S. aureus RN4220 is “inactive”.
Take `CC(C)NC(=O)Nc1ccc2c(c1)C(=O)N([C@H](C)CO)C[C@H](C)[C@@H](CN(C)Cc1ccc(Cl)c(Cl)c1)OCCCC[C@H](C)O2`: the cytotoxicity call in the experiment with HSkMC and with HepG2 was “inactive” in each case. The growth inhibition call in the experiment on S. aureus RN4220 was “inactive”.
Consider `CC(C)CS(=O)(=O)N1CCC2(CC1)[C@H]1CN(c3ncccn3)C[C@@H]1C(=O)N2C`, for which the cytotoxicity call in the experiment with HSkMC and in the experiment with HepG2 was “inactive” in each case. The growth inhibition call with S. aureus RN4220 is “inactive”.
In the case of `C[C@H](CO)N1C[C@H](C)[C@@H](CN(C)C(=O)Nc2ccnc(N3CCOCC3)c2)OCc2cnnn2CCCC1=O`, the cytotoxicity call in the experiment with HSkMC and with HepG2 was “inactive” throughout. Moreover, the growth inhibition call with S. aureus RN4220 is “inactive”.
As for `C[C@H](CO)N1C[C@H](C)[C@H](CN(C)C(=O)Nc2cccc(F)c2)OCc2ccccc2-c2c(n(C)c3ccccc23)C1=O`, the cytotoxicity call with HSkMC and in the experiment with HepG2 was “inactive” in each case. For the same molecule, in the experiment with S. aureus RN4220, the growth inhibition call was “inactive”.
For `O=C1O[C@H](c2ccccc2)[C@H](c2ccccc2)N2[C@H]1[C@@H](C(=O)O)[C@]1(C(=O)Nc3ccc(C#CC4=CCCCC4)cc31)[C@H]2C1CCCCC1`, the cytotoxicity call in the experiment on HSkMC is “inactive”. Moreover, the cytotoxicity call in the experiment with HepG2 is “active”. For the same molecule, the growth inhibition call in the experiment with S. aureus RN4220 is “inactive”.
Regarding `CN1CCN(C(=O)C[C@@H]2CC[C@@H]3[C@H](COC[C@@H](O)CN3C(=O)C3CCOCC3)O2)CC1`, the cytotoxicity call with HSkMC and in the experiment with HepG2 was “inactive” throughout. The growth inhibition call with S. aureus RN4220 is “inactive”.
`C[C@@H]1CCCCO[C@H](CN(C)C(=O)Nc2cccc3ccccc23)[C@@H](C)CN([C@H](C)CO)C(=O)c2cc(NC(=O)CCCCCC(=O)Nc3ccccc3N)ccc2O1`: the cytotoxicity call with HSkMC and in the experiment on HepG2 was “inactive” each time. Moreover, the growth inhibition call in the experiment with S. aureus RN4220 is “inactive”.
For the molecule `CC(C)NC(=O)Nc1ccc2c(c1)C(=O)N([C@H](C)CO)C[C@@H](C)[C@H](CN(C)C(=O)C1CCCCC1)OCCCC[C@H](C)O2`, the cytotoxicity call in the experiment with HSkMC and in the experiment on HepG2 was “inactive” each time. Also, in the experiment with S. aureus RN4220, the growth inhibition call is “inactive”.
Take `COc1ccc(S(=O)(=O)Nc2ccc3c(c2)C(=O)N([C@@H](C)CO)C[C@H](C)[C@H](CN(C)C(=O)Nc2ccc(C(F)(F)F)cc2)OCCCC[C@H](C)O3)cc1`: the cytotoxicity call in the experiment on HSkMC and in the experiment on HepG2 was “inactive” each time. For the same molecule, the growth inhibition call with S. aureus RN4220 is “inactive”.
In the case of `COc1cccc(S(=O)(=O)N(C)C[C@@H]2Oc3ncc(C#CC(C)C)cc3C(=O)N([C@@H](C)CO)C[C@H]2C)c1`, the cytotoxicity call in the experiment on HSkMC (human skeletal muscle cells) and with HepG2 was “inactive” in each case. Besides, the growth inhibition call with S. aureus RN4220 was “inactive”.
Regarding `CC(C)NC(=O)N(C)C[C@H]1Oc2ccc(NC(=O)C3CCCCC3)cc2CC(=O)N([C@H](C)CO)C[C@@H]1C`, the cytotoxicity call in the experiment with HSkMC was “inactive”. Also, the cytotoxicity call in the experiment with HepG2 is “active”. In addition, in the experiment with S. aureus RN4220, the growth inhibition call was “inactive”.
For `C[C@@H]1CCCCO[C@H](CN(C)C(=O)Nc2cccc3ccccc23)[C@H](C)CN([C@@H](C)CO)C(=O)c2cc(NC(=O)Nc3cccc4ccccc34)ccc2O1`, the cytotoxicity call in the experiment with HSkMC and in the experiment on HepG2 was “inactive” each time. Moreover, the growth inhibition call in the experiment on S. aureus RN4220 is “inactive”.
